According to patent US7902193B2, “Phthalazinone derivatives” (Maybridge Limited, priority 2005, dated 2011):

biological target: Mammalian PARP, isolated from Hela cell nuclear extract (Homo sapiens, UniProt P09874); assay: PARP inhibition assay (FlashPlate, 3H-NAD) to determine IC50; type: biochemical; details: NAD 5 μM, 30°C, 45 minutes, read-out: IC50 (the concentration at which 50% of the enzyme activity is inhibited)
Protocol: In order to assess the inhibitory action of the compounds, the following assay was used to determine IC50 values (Dillon, et al., JBS., 8(3), 347-352 (2003)).
All compounds were diluted in DMSO and gave final assay concentrations of between 10 and 0.01 μM, with the DMSO being at a final concentration of 1% per well. The total assay volume per well was 40 μl.
After 10 minutes incubation at 30° C. the reactions were initiated by the addition of a 10 μl reaction mixture, containing NAD (5 μM), ^3H-NAD and 30mer double stranded DNA-oligos. Designated positive and negative reaction wells were done in combination with compound wells (unknowns) in order to calculate % enzyme activities. The plates were then shaken for 2 minutes and incubated at 30° C. for 45 minutes.
Following the incubation, the reactions were quenched by the addition of 50 μl 30% acetic acid to each well. The plates were then shaken for 1 hour at room temperature.
The plates were transferred to a TopCount NXT (TRADE MARK) (Packard, UK) for scintillation counting. Values recorded are counts per minute (cpm) following a 30 second counting of each well.
The % enzyme activity for each compound is then calculated using the following equation: […]
IC50 values (the concentration at which 50% of the enzyme activity is inhibited) were calculated, which are determined over a range of different concentrations, normally from 10 μM down to 0.001 μM. Such IC50 values are used as comparative values to identify increased compound potencies.

Sequence of UniProt P09874 (P09874 whole entry): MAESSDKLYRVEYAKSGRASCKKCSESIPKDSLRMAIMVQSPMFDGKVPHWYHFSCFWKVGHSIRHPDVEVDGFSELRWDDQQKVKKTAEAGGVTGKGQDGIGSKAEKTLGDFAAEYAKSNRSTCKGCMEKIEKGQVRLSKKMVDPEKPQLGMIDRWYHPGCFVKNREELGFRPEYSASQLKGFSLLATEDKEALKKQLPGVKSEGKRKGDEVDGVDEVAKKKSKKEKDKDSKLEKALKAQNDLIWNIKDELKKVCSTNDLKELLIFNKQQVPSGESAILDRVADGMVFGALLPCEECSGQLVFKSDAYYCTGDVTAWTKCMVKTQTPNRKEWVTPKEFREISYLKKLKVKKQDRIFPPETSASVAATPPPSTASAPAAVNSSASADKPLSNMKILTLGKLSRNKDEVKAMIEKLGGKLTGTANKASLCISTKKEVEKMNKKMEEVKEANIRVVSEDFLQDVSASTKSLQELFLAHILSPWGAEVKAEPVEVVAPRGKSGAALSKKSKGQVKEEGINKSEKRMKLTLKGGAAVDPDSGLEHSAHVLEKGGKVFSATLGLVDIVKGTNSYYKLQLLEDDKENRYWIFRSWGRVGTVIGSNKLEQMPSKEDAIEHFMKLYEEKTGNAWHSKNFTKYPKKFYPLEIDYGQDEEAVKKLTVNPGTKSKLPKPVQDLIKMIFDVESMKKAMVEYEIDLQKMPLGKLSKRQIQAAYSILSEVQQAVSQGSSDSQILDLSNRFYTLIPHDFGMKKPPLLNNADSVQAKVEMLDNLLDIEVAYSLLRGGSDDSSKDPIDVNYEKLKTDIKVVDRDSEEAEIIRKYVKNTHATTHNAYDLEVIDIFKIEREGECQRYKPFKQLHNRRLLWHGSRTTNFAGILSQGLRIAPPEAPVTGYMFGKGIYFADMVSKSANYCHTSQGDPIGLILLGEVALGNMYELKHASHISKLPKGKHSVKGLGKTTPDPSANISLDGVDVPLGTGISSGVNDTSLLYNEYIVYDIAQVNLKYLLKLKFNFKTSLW

Row | Structure (SMILES) | IC50
1 | CC1NC(=O)N(c2cccc(Cc3n[nH]c(=O)c4ccccc34)c2)C1=O (centres unmarked) [Compound 9a] | < 0.01 µM
2 | O=C1CNC(=O)N1c1cccc(Cc2n[nH]c(=O)c3ccccc23)c1 [Compound 9c] | < 0.01 µM
3 | CC(C)(C)OC(=O)CN1C(=O)N(c2cc(Cc3n[nH]c(=O)c4ccccc34)ccc2F)C(=O)C1(C)C [Compound 35B] | < 0.01 µM
4 | CC1(C)C(=O)N(c2cc(Cc3n[nH]c(=O)c4ccccc34)ccc2F)C(=O)N1CC(=O)N1CCOCC1 [Compound 37Ba] | < 0.01 µM
5 | CC1(C)C(=O)N(c2cc(Cc3n[nH]c(=O)c4ccccc34)ccc2F)C(=O)N1CC(=O)N1CCC(O)CC1 [Compound 37Bb] | < 0.01 µM
6 | CN1CCN(C(=O)CN2C(=O)N(c3cc(Cc4n[nH]c(=O)c5ccccc45)ccc3F)C(=O)C2(C)C)CC1 [Compound 37Bi] | < 0.01 µM
7 | CC1(C)C(=O)N(c2cc(Cc3n[nH]c(=O)c4ccccc34)ccc2F)C(=O)N1CC(=O)N1CCC(N2CCOCC2)CC1 [Compound 37Bl] | < 0.01 µM
8 | COC(=O)CN1C(=O)N(c2cc(Cc3n[nH]c(=O)c4ccccc34)ccc2F)C(=O)C1C (centres unmarked) [Compound 39, {3-[2-Fluoro-5-(4-oxo-3,4-dihydro-phthalazin-1-ylmethyl)-phenyl]-5-methyl-2,4-dioxo-imidazolidin-1-yl}-acetic acid methyl ester] | < 0.01 µM
9 | CC1C(=O)N(c2cc(Cc3n[nH]c(=O)c4ccccc34)ccc2F)C(=O)N1CC(N)=O (centres unmarked) [Compound 40a, 2-{3-[2-Fluoro-5-(4-oxo-3,4-dihydro-phthalazin-1-ylmethyl)-phenyl]-5-methyl-2,4-dioxo-imidazolidin-1-yl}-acetamide] | < 0.01 µM
10 | CC1CN(C(=O)CC2NC(=O)N(c3cc(Cc4n[nH]c(=O)c5ccccc45)ccc3F)C2=O)CC(C)O1 (centres unmarked) [Compound 43a] | < 0.01 µM
11 | COCCN1CCN(C(=O)CC2NC(=O)N(c3cc(Cc4n[nH]c(=O)c5ccccc45)ccc3F)C2=O)CC1 (centres unmarked) [Compound 43c] | < 0.01 µM
12 | CN1CCN(C(=O)CC2NC(=O)N(c3cc(Cc4n[nH]c(=O)c5ccccc45)ccc3F)C2=O)CC1 (centres unmarked) [Compound 43d] | < 0.01 µM
13 | O=C(CC1NC(=O)N(c2cc(Cc3n[nH]c(=O)c4ccccc34)ccc2F)C1=O)N1CCCN(CCO)CC1 (centres unmarked) [Compound 43f] | < 0.01 µM
14 | O=C(CC1NC(=O)N(c2cc(Cc3n[nH]c(=O)c4ccccc34)ccc2F)C1=O)N1CCC(N2CCOCC2)CC1 (centres unmarked) [Compound 43g] | < 0.01 µM
